According to PubChem BioAssay AID1347165 (National Center for Advancing Translational Sciences (NCATS), 2019):
Screen size: about 220,000 compounds; about 5,700 (2.6%) were called active. The shares of active, inactive and inconclusive entries below differ from those in the screen. Calls follow the shape of the dose curve; as a rule, active = well fitted inhibition curve with a large enough effect; inconclusive = small, poorly fitted or top-dose-only effect; inactive = no such curve, though single readings can be large or run the other way. Potencies beside an inconclusive call are fits to weak or partial responses and may not hold up.
Also: nearly all actives have a fitted effect of over 70% in size.
Potency is read from the fitted curve at half-maximal effect; tags tell the direction and shape of the fitted curve.

Each molecule was assayed against Lysine-specific demethylase 5B (Homo sapiens) (UniProt Q9UGL1) (assay: Primary screen for KDM5B Histone Demethylases FDH-coupled qHTS). Conditions: FDH-coupled NADH fluorescence (FDH is formaldehyde dehydrogenase); series mostly up to 57.7 µM.
Sequence of UniProt Q9UGL1 (Q9UGL1 whole entry, looked up): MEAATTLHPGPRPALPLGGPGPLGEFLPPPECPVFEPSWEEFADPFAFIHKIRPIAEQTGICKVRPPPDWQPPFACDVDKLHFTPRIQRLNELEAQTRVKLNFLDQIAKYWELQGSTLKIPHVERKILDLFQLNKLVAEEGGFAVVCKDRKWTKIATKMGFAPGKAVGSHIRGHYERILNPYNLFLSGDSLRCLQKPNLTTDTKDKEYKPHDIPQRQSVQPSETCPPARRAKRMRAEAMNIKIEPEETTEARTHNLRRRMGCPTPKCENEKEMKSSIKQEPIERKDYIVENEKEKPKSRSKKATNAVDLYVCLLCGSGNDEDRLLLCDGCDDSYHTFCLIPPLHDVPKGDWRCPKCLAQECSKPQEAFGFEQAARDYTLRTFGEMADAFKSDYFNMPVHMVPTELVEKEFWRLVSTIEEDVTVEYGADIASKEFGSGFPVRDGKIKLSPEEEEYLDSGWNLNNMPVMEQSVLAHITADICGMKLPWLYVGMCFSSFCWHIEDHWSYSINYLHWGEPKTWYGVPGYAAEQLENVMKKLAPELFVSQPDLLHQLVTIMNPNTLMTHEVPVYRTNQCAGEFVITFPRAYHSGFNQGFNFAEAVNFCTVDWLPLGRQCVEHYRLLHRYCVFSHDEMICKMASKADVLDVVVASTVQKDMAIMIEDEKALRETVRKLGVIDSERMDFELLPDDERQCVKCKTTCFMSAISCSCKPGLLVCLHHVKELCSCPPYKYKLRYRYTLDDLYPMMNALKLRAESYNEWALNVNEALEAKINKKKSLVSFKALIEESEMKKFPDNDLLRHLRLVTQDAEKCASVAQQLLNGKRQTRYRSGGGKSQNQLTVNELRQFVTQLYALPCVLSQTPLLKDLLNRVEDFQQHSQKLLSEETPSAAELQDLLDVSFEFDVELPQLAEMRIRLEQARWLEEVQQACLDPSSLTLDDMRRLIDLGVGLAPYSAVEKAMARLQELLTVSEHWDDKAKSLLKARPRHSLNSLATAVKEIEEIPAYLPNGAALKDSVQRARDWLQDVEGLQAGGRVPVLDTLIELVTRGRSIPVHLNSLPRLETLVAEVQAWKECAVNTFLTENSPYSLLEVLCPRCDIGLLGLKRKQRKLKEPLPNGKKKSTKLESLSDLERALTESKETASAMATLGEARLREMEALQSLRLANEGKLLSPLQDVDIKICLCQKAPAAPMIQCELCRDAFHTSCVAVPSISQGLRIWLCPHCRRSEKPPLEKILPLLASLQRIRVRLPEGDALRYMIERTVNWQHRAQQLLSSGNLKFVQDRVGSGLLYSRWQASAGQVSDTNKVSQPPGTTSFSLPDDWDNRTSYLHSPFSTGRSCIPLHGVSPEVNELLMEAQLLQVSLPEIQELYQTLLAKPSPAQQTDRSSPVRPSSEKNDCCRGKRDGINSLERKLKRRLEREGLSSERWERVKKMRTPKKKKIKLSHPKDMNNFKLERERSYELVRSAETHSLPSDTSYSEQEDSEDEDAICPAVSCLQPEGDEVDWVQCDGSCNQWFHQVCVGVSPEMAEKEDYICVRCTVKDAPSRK
Summary of the method: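 KDM5BΔAP (200 nM final) in 50 mM HEPES pH 7.5, 0.01% Tween-20 was preincubated 10 min at RT with compound over a concentration range. Substrate mix (H3K4me3 12.5 µM, α-KG 25 µM, Fe²⁺, ascorbate, NAD⁺, FDH) was added, and NADH fluorescence change over 30 min gave dose-response curves.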
With `CN1CC2(CCN(C(=O)c3cc4ccccc4[nH]3)CC2)CC1C(=O)N1CCOCC1` (stereo not drawn) the Potency was inconclusive: 31.6 µM [inhibitor, single point].
In the case of `O[C@@H]1C[C@@H](c2nc(Cc3ccc(F)cc3Cl)no2)N(Cc2ccco2)C1`, the Potency is reported as inconclusive: 35.5 µM [inhibitor, single point].
With `Cc1ccc(C(=O)COC(=O)c2cccc(NC(=O)c3ccc(Br)cc3)c2)cc1` the Potency was inconclusive: 25.1 µM [inhibitor, single point].
`COc1ccc(-c2nc(C)c(CCNC(=O)c3cc(OC)c(OC)c(OC)c3)s2)cc1OC` was tested, and the Potency was inconclusive: 31.6 µM [inhibitor, partial curve, poor fit].
With `Cc1ccc(-c2ccc3nnc(CNC(=O)c4cccc(C#N)c4)n3n2)cc1` the Potency was active: 11.2 µM.
In the case of `Nc1nccnc1C(=O)NCc1ccc(O)cc1`, the Potency is reported as inconclusive: 31.6 µM [inhibitor, partial curve, poor fit].
For `COCCN1CCC2(C1)CN(C)c1ccc(C(=O)NCCOc3ccccc3)cc12` (stereo not drawn), the Potency was inconclusive: 39.8 µM [inhibitor, partial curve, poor fit].
In the case of `Cc1nnc(SCC(=O)NCc2ccc(N(C)C)cc2)c2nn(-c3ccccc3)c(C)c12`, the Potency is reported as inconclusive: 35.5 µM [inhibitor, single point].
`COc1cccc(C(c2c(O)cc(C)n(Cc3ccco3)c2=O)N2CCC(C)CC2)c1` (stereo not drawn) was tested, and the Potency was inconclusive: 28.2 µM [inhibitor, single point].
`O=C(NCCCOC1CCCCC1)C1CCCO1` (stereo not drawn) was tested, and the Potency was “inactive”.
In the case of `CCOc1ccc2cc(C(=O)O)[nH]c2c1`, the Potency is reported as inconclusive: 39.8 µM [inhibitor, single point].
For `O=C(NCC1CCC1)c1ccccc1Nc1ccccc1`, the Potency was “inactive”.
For `O=C(Nc1ccccc1)C1CCN(C(=O)c2nn(-c3ccccc3)c(=O)c3ccccc23)CC1`, the Potency was “inactive”.
In the case of `Cc1nc(-c2ccc(S(=O)(=O)Nc3cccc(C#N)c3)cc2)co1`, the Potency is reported as “inactive”.
For `COc1cc(/C=C2/NC(=O)NC2=O)ccc1OCC(=O)O`, the Potency was “inactive”.
`Cc1nnc(-c2cc(-c3ccc([S+](C)(=O)[O-])cc3)ccn2)n1Cc1ccccc1` was tested, and the Potency was inconclusive: 35.5 µM [inhibitor, single point].
For `O=C1NCCCCCN(Cc2cn[nH]c2-c2ccccc2)[C@H]2CCC[C@@H]12`, the Potency was inconclusive: 39.8 µM [inhibitor, single point].
In the case of `Cc1ccc(NC(=O)CSc2nc(-c3cccs3)cc(C(F)(F)F)n2)cc1C`, the Potency is reported as inconclusive: 15.8 µM [inhibitor, partial curve, poor fit].
With `O=C(NCC(F)(F)F)c1cc(-c2ccc3c(c2)OCCO3)nc2ccccc12` the Potency was inconclusive: 31.6 µM [inhibitor, partial curve, poor fit].
With `COc1ccc(NC(=O)CN(C)S(=O)(=O)c2ccc3c(c2)CCCN3C(C)=O)cc1Cl` the Potency was “inactive”.
For `CC(C)Oc1cccc(C(=O)Nc2ccc(-c3nc4cc(Cl)cc(Cl)c4o3)cc2)c1`, the Potency was inconclusive: 15.8 µM [inhibitor, partial curve, poor fit].
In the case of `Cc1nnc(SCc2ccccc2Cl)c2cc3occc3n12`, the Potency is reported as inconclusive: 31.6 µM [inhibitor, single point].
With `COC(=O)CNC(=O)c1nc(C(C)(C)C)c2ccccn12` the Potency was active: 126 µM.
In the case of `CC(C)CN1C(=O)C2(CC(=O)Nc3c2cnn3Cc2ccccc2Cl)c2ccccc21` (stereo not drawn), the Potency is reported as “inactive”.
In the case of `COc1ccc2c(CNCc3cccs3)c(C(=O)O)n(Cc3ccc(F)cc3Cl)c2c1`, the Potency is reported as inconclusive: 15.8 µM [inhibitor, partial curve, poor fit].
With `Cc1ccc2c(C(=O)O)cc(-c3cccs3)nc2c1C` the Potency was inconclusive: 22.4 µM [inhibitor, partial curve, poor fit].
In the case of `CCOc1ccccc1CN1CCC2(CCN(Cc3ccsc3)CC2)Oc2ccccc21`, the Potency is reported as inconclusive: 20 µM [inhibitor, partial curve].
`CC(=O)Oc1c(-c2ccc(NC(=O)c3cccs3)cc2)c(-c2cccc(F)c2)nn1-c1ccccc1` was tested, and the Potency was inconclusive: 31.6 µM [inhibitor, single point].
In the case of `O=C(Cn1ccn2nc(-c3ccccc3)c(CO)c2c1=O)NCc1ccc(F)cc1F`, the Potency is reported as “inactive”.
`CCOC(=O)c1cccc(NS(=O)(=O)c2c(C)nc3sc(C)cn3c2=O)c1` was tested, and the Potency was inconclusive: 35.5 µM [inhibitor, single point].
With `Cc1ncoc1C(=O)N1CCCCCCNC(=O)[C@@H]2C[C@@H](c3nc(Cc4ccccc4)no3)C[C@@H]21` the Potency was inconclusive: 8.91 µM [inhibitor, partial curve, poor fit].
For `CN1CC(=O)N(C2CCCNC2)Cc2c1ncnc2N1CCOCC1` (stereo not drawn), the Potency was inconclusive: 56.2 µM [inhibitor, partial curve, poor fit].
For `C[C@@]1(O)CCN(Cc2cn[nH]c2-c2ccccc2)C[C@H]1N1CCCC1`, the Potency was inconclusive: 7.08 µM [inhibitor, partial curve].
In the case of `COc1ccc(CNC(=O)c2ccc3c(c2)NC(=O)C(CS(=O)(=O)Cc2ccccc2Cl)N3)cc1` (stereo not drawn), the Potency is reported as inconclusive: 28.2 µM [inhibitor, partial curve, poor fit].
In the case of `O=C(NC[C@H]1O[C@@H](CO)[C@@H](O)[C@H]1N1CCN(c2ccc(F)cc2)CC1)c1cccs1`, the Potency is reported as “inactive”.
With `COC(=O)C(C)Sc1ccccc1C(=O)O` (stereo not drawn) the Potency was “inactive”.
With `CCCN(C)c1nccnc1OC1CCN(C(=O)Cc2ccccc2OC)C1` (stereo not drawn) the Potency was “inactive”.
For `COCCNc1ncc(-c2ccc(NC(C)=O)cc2)c2c1OCC2`, the Potency was active: 35.5 µM.
For `COc1ccc(CC(=O)N[C@H]2[C@H](O)[C@H](O)C[C@@H]2c2ccc(N3CCOCC3)nc2)cc1`, the Potency was active: 31.6 µM.
For `CCOC(=O)c1nc(-c2ccc(Br)o2)no1`, the Potency was “inactive”.
For `Cc1cccc(NC(=O)CSc2cn(CC(=O)N3CCOCC3)c3ccccc23)c1`, the Potency was “inactive”.
With `CC(Cc1c[nH]c2ccccc12)NC(=O)C1CCN(c2nc(Cl)nc3nc[nH]c23)CC1` (stereo not drawn) the Potency was inconclusive: 22.4 µM [inhibitor, single point].
In the case of `CSc1nc2ccccc2c(=O)n1CC(=O)c1cc(C)c(C)cc1C`, the Potency is reported as “inactive”.
